# Source: the supplement of paper PMC8728848
# The other results are listed elsewhere or left out.
# B1: LSL-150 (Laetiporus sulphureus), Q7Z8V1 (protein)
# chain: MTDIYIPPEGLYFRLLGFASRQVIFARNSPSPDVGLSPVNDQATDQYFSLIYGTGEHAGLYAIKSKATGKVLFSRRPAEPYVGQIDGDGRYPDNWFKIEPGKTYLSKYFRLVQPSTGTALVSRTHLQPYFWNHPQTEVFDDQYFTFLFEDHHHHHH
# Legend:
# Assay in all cases: glycan array binding signal (z-score within array); higher = stronger binding
# Conditions in all cases: glycan notation: IUPAC condensed, linker removed
# [1] = target: Neu5Ac(a2-6)Gal(b1-4)GlcNAc(b1-2)Man(a1-3)[GlcNAc(b1-4)][Neu5Ac(a2-6)Gal(b1-4)GlcNAc(b1-2)Man(a1-6)]Man(b1-4)GlcNAc(b1-4)GlcNAc
# In short: (§1)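 From the Consortium for Functional Glycomics database, 3228 arrays were curated, keeping only those whose protein sequence was available. Binding is given as a within-array Z-score averaged across arrays sharing a protein sequence and across linkers. Negative Z-scores can be read as non-binding.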
# [2] = target: Neu5Ac(a2-6)Gal(b1-4)GlcNAc(b1-2)Man(a1-3)[Man(a1-6)]Man(b1-4)GlcNAc(b1-4)GlcNAc
# In short: as §1
# [3] = target: Neu5Ac(a2-6)Gal(b1-4)GlcNAc(b1-2)Man(a1-3)[Neu5Ac(a2-3)Gal(b1-4)GlcNAc(b1-2)Man(a1-6)]Man(b1-4)GlcNAc(b1-4)GlcNAc
# In short: as §1
# [4] = target: Neu5Ac(a2-6)Gal(b1-4)GlcNAc(b1-2)Man(a1-3)[Neu5Ac(a2-6)Gal(b1-4)GlcNAc(b1-2)Man(a1-6)]Man(b1-4)GlcNAc(b1-4)GlcNAc
# In short: as §1
# [5] = target: Neu5Ac(a2-6)Gal(b1-4)GlcNAc(b1-2)Man(a1-3)[Neu5Ac(a2-6)Gal(b1-4)GlcNAc(b1-2)Man(a1-6)]Man(b1-4)GlcNAc(b1-4)[Fuc(a1-6)]GlcNAc
# In short: as §1
# [6] = target: Neu5Ac(a2-6)Gal(b1-4)GlcNAc(b1-2)Man(a1-6)Man(b1-4)GlcNAc(b1-4)GlcNAc
# In short: as §1
# [7] = target: Neu5Ac(a2-6)Gal(b1-4)GlcNAc(b1-2)Man(a1-6)[Gal(b1-4)GlcNAc(b1-2)Man(a1-3)]Man(b1-4)GlcNAc(b1-4)GlcNAc
# In short: as §1
# [8] = target: Neu5Ac(a2-6)Gal(b1-4)GlcNAc(b1-2)Man(a1-6)[GlcNAc(b1-2)Man(a1-3)]Man(b1-4)GlcNAc(b1-4)GlcNAc
# In short: as §1
# [9] = target: Neu5Ac(a2-6)Gal(b1-4)GlcNAc(b1-2)Man(a1-6)[Man(a1-3)]Man(b1-4)GlcNAc(b1-4)GlcNAc
# In short: as §1
# [10] = target: Neu5Ac(a2-6)Gal(b1-4)GlcNAc(b1-2)[Neu5Ac(a2-6)Gal(b1-4)GlcNAc(b1-4)]Man(a1-3)[GlcNAc(b1-4)][Neu5Ac(a2-6)Gal(b1-4)GlcNAc(b1-2)[Neu5Ac(a2-6)Gal(b1-4)GlcNAc(b1-6)]Man(a1-6)]Man(b1-4)GlcNAc(b1-4)GlcNAc
# In short: as §1
# [11] = target: Neu5Ac(a2-6)Gal(b1-4)GlcNAc(b1-2)[Neu5Ac(a2-6)Gal(b1-4)GlcNAc(b1-4)]Man(a1-3)[GlcNAc(b1-4)][Neu5Ac(a2-6)Gal(b1-4)GlcNAc(b1-4)Man(a1-6)]Man(b1-4)GlcNAc(b1-4)GlcNAc
# In short: as §1
# [12] = target: Neu5Ac(a2-6)Gal(b1-4)GlcNAc(b1-2)[Neu5Ac(a2-6)Gal(b1-4)GlcNAc(b1-6)]Man(a1-6)[Neu5Ac(a2-6)Gal(b1-4)GlcNAc(b1-2)Man(a1-3)][GlcNAc(b1-4)]Man(b1-4)GlcNAc(b1-4)GlcNAc
# In short: as §1
# [13] = target: Neu5Ac(a2-6)Gal(b1-4)GlcNAc(b1-3)Gal(b1-3)GlcNAc
# In short: as §1
# [14] = target: Neu5Ac(a2-6)Gal(b1-4)GlcNAc(b1-3)Gal(b1-4)GlcNAc
# In short: as §1
# [15] = target: Neu5Ac(a2-6)Gal(b1-4)GlcNAc(b1-3)Gal(b1-4)GlcNAc(b1-2)Man(a1-3)[Neu5Ac(a2-6)Gal(b1-4)GlcNAc(b1-3)Gal(b1-4)GlcNAc(b1-2)Man(a1-6)]GalNAc
# In short: as §1
# [16] = target: Neu5Ac(a2-6)Gal(b1-4)GlcNAc(b1-3)Gal(b1-4)GlcNAc(b1-3)Gal(b1-4)GlcNAc
# In short: as §1
# [17] = target: Neu5Ac(a2-6)Gal(b1-4)GlcNAc(b1-3)Gal(b1-4)GlcNAc(b1-3)Gal(b1-4)GlcNAc(b1-2)Man(a1-3)[Neu5Ac(a2-6)Gal(b1-4)GlcNAc(b1-3)Gal(b1-4)GlcNAc(b1-3)Gal(b1-4)GlcNAc(b1-2)Man(a1-6)]GalNAc
# In short: as §1
# [18] = target: Neu5Ac(a2-6)Gal(b1-4)GlcNAc(b1-3)Gal(b1-4)GlcNAc(b1-3)GalNAc
# In short: as §1
# [19] = target: Neu5Ac(a2-6)Gal(b1-4)GlcNAc(b1-3)Gal(b1-4)GlcNAc(b1-3)[Neu5Ac(a2-6)Gal(b1-4)GlcNAc(b1-3)Gal(b1-4)GlcNAc(b1-6)]GalNAc
# In short: as §1
# [20] = target: Neu5Ac(a2-6)Gal(b1-4)GlcNAc(b1-3)Gal(b1-4)GlcNAc(b1-6)[Gal(b1-3)]GalNAc
# In short: as §1
# [21] = target: Neu5Ac(a2-6)Gal(b1-4)GlcNAc(b1-3)Gal(b1-4)[Fuc(a1-3)]GlcNAc(b1-3)Gal(b1-4)[Fuc(a1-3)]GlcNAc
# In short: as §1
# [22] = target: Neu5Ac(a2-6)Gal(b1-4)GlcNAc(b1-3)GalNAc
# In short: as §1
# [23] = target: Neu5Ac(a2-6)Gal(b1-4)GlcNAc(b1-3)[Neu5Ac(a2-6)Gal(b1-4)GlcNAc(b1-6)]GalNAc
# In short: as §1
# [24] = target: Neu5Ac(a2-6)Gal(b1-4)GlcNAc(b1-6)GalNAc
# In short: as §1
# [25] = target: Neu5Ac(a2-6)Gal(b1-4)GlcNAc(b1-6)[Gal(b1-3)GlcNAc(b1-3)]Gal(b1-4)Glc
# In short: as §1
# [26] = target: Neu5Ac(a2-6)Gal(b1-4)GlcNAc(b1-6)[Gal(b1-3)]GalNAc
# In short: as §1
# [27] = target: Neu5Ac(a2-6)Gal(b1-4)GlcNAc6S
# In short: as §1
# Neu5Ac(a2-6)GalNAc = target: Neu5Ac(a2-6)GalNAc
# In short: as §1
# [28] = target: Neu5Ac(a2-6)GalNAc(b1-4)GlcNAc
# In short: as §1
# [29] = target: Neu5Ac(a2-6)GalNAc(b1-4)GlcNAc6S
# In short: as §1
# [30] = target: Neu5Ac(a2-6)GlcNAc(b1-4)GlcNAc
# In short: as §1
binder,measurement,setting,value
B1,glycan array binding signal (z-score),[1],-0.208
same,glycan array binding signal (z-score),[2],-0.198
same,glycan array binding signal (z-score),[3],-0.204
same,glycan array binding signal (z-score),[4],-0.201
same,glycan array binding signal (z-score),[5],-0.208
same,glycan array binding signal (z-score),[6],-0.206
same,glycan array binding signal (z-score),[7],-0.202
same,glycan array binding signal (z-score),[8],-0.213
same,glycan array binding signal (z-score),[9],-0.21
same,glycan array binding signal (z-score),[10],-0.207
same,glycan array binding signal (z-score),[11],-0.208
same,glycan array binding signal (z-score),[12],-0.209
same,glycan array binding signal (z-score),[13],-0.205
same,glycan array binding signal (z-score),[14],-0.079
same,glycan array binding signal (z-score),[15],0.587
same,glycan array binding signal (z-score),[16],1.15
same,glycan array binding signal (z-score),[17],0.848
same,glycan array binding signal (z-score),[18],-0.122
same,glycan array binding signal (z-score),[19],-0.077
same,glycan array binding signal (z-score),[20],-0.202
same,glycan array binding signal (z-score),[21],-0.197
same,glycan array binding signal (z-score),[22],-0.209
same,glycan array binding signal (z-score),[23],-0.202
same,glycan array binding signal (z-score),[24],-0.203
same,glycan array binding signal (z-score),[25],-0.207
same,glycan array binding signal (z-score),[26],-0.194
same,glycan array binding signal (z-score),[27],-0.203
same,glycan array binding signal (z-score),Neu5Ac(a2-6)GalNAc,-0.206
same,glycan array binding signal (z-score),[28],-0.207
same,glycan array binding signal (z-score),[29],-0.21
same,glycan array binding signal (z-score),[30],-0.208
